The full ranking holds about 33,000 sequences; the median of “E-score (-0.5 to 0.5)” is about -0.035, and the highest 2% start at about 0.34. The list shows a part of the results.
biological target: T1, Mot3 (UniProt P54785); assay: PBM E-score (8-mer binding enrichment) (E-score (-0.5 to 0.5)); higher = stronger / more preferred TF binding; most listed sequences are background and not binding sites; details: protein concentration: 200 nM; construct: GST-full length
T1 sequence: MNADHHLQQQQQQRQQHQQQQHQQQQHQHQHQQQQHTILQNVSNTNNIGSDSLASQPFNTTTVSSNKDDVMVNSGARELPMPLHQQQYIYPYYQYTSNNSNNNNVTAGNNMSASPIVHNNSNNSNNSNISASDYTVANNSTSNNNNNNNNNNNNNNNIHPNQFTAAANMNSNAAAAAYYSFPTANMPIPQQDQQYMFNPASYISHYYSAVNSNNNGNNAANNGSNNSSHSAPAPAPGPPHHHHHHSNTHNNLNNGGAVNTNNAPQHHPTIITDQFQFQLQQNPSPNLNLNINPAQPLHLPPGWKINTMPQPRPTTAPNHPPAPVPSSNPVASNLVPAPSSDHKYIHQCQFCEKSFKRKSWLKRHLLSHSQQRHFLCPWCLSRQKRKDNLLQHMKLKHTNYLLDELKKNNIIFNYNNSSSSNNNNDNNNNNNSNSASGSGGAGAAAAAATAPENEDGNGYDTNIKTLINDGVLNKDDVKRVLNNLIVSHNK
Summary of the method: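 Yeast transcription factors, full-length or as DNA-binding domains, were expressed with a GST tag using PURExpress in vitro transcription/translation. At about 100-200 nM they were applied to universal all-10-mer Agilent arrays, double-stranded by primer extension on fresh or once-stripped slides. Fluorescent anti-GST detected bound protein, and masliner normalised the scans. E-scores for ungapped eight-base words, pooled with reverse complements, came from the Universal PBM Analysis Suite.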

Sequence | PBM E-score
CCTGGGGA | -0.0479
ATGACTAA | -0.128
CATGCTAG | 0.123
ATACCACC | -0.132
CATATGTC | -0.14
ATAAGATG | -0.0926
GCTCAAAA | -0.0353
ACTTGGGA | -0.155
AATTCAAG | 0.115
CTTGCTCC | -0.258
GTCGACTA | 0.0579
GGTTCTAC | 0.0499
CTCTATCC | -0.0756
ATCGGGCA | -0.0672
ACATTCAT | 0.236
AGCCAGGA | -0.0709
CGGTGGTC | -0.0989
TCAAACCA | -0.0433
ACCAGCAG | -0.37
CACTCTAC | 0.152
GCGGAGCC | -0.225
GTATTAGA | 0.201
TGCAACAA | 0.125
GGCTCACC | -0.261
CTCAAGTC | -0.136

Sequence | PBM E-score
AACGGGGC | -0.169
CCCTTATA | 0.0164
AAGGAAAG | 0.441
CGTAGTCC | -0.254
AAGGTGCA | 0.102
AATATGGT | -0.0897
ATAGGACC | -0.0931
AAACGCCA | 0.071
CTTGTGAA | 0.152
AACGTCAA | 0.0839
GGCATGCC | -0.126
TTATTAAA | 0.175
CTCATGCA | -0.138
CATGCTGC | -0.125
CTGATAGA | -0.0628
AAAGACCT | -0.0824
AGATTCGA | -0.0235
GATTGATA | 0.122
ATTTTCTC | -0.195
AGTAGCCA | -0.269
GTGGCTCA | -0.26
AGCTTGAG | -0.308
CCGCGGCA | -0.0732
CAACCATG | 0.127
AAAGCACC | -0.0982

Sequence | PBM E-score
ATCTGTGA | -0.161
CGTATGAG | -0.159
CGCTTCCC | -0.126
TAGTAGCA | -0.011
AAAATCTG | -0.0854
ATCTCCAG | -0.118
GATGGGCA | -0.0681
GGTTCCTA | 0.454
ACAAGAGG | 0.166
ACAGTCCA | 0.0673
TAATGCTA | 0.24
CAAGTCAA | 0.0158
CCCCAACA | -0.0637
GCACAAAC | 0.0655
CCTGAAGG | 0.0946
CGCCCCGA | -0.237
AGGTTAAG | 0.137
GATGGGAA | -0.153
CAGACGCA | -0.108
CATCGATC | -0.0248
AGATGAAA | 0.00204
CTAGCGAA | -0.274
CGGTAACG | -0.13
GGCGAGCC | -0.0946
CGGCCTAA | -0.0857

Sequence | PBM E-score
CCTCTCCC | -0.133
ATCGATGA | 0.0733
CGTAAGGA | 0.232
AGAGTTCG | -0.0196
GTGACGTA | 0.138
AGTTCCAG | -0.143
CCTCAGAA | 0.025
CACTGATA | -0.0318
CAGGCCTA | -0.148
AGTGCCGC | -0.373
ACCTACGA | 0.285
CCAGTCGC | -0.259
GTAGGGTA | -0.0161
ACTCCCGA | -0.281
AACGGTAA | 0.0433
GAAAGAAA | 0.1
GCTACTGA | -0.122
CCTGCAAA | 0.285
CAGTGACC | -0.247
CTAGTCAC | -0.047
CCGGGCTA | -0.116
GTAAGCAC | 0.0813
TACAAGAA | 0.214
GGTCCACC | -0.259
AGCAACAC | 0.143

Sequence | PBM E-score
CAGGGTAG | -0.147
AGTCTACG | -0.14
GTCCAGAC | -0.261
AGCTATCA | -0.0955
CGTCCCAC | -0.0132
AATCGTAG | 0.0639
CTAAGGCA | 0.452
ACACGCGC | 0.21
CCGCACAA | -0.326
AAAGAATT | 0.104
ATGCACCG | -0.0841
CTCGAATA | -0.115
GAGTTGCA | -0.0669
ATACGTGC | 0.185
AACTACCC | 0.0263
CACAGGTG | 0.0773
CTGCCCAA | -0.173
GTTGACAA | 0.177
AGATTTAA | 0.144
AAGGTAGA | -0.0631
AGCTGTAG | 0.00057
ATGTGGGG | -0.188
CGACCGCA | -0.0853
AAGATGAT | 0.0671
AATGACTA | -0.0693

Sequence | PBM E-score
GAGGTGGC | -0.275
ACTATAAG | -0.0293
ACATTGGT | -0.00875
GCCCCCAA | -0.135
GGTAGAAC | -0.0739
CAATAGCC | 0.0124
CTAGGAGC | -0.225
AATCGACT | -0.0375
GATTCATA | -0.139
CAAAGAGG | 0.141
GACACGAC | 0.31
CCTAGCAA | 0.0746
CCTCGCTC | -0.12
TGGTTCAA | -0.109
ACGTGACT | 0.104
GAACTGAA | 0.0162
GCACTTAC | 0.0258
TAAGGACA | -0.0242
AGTCCGGC | -0.124
CGTGCCTC | 0.469
CCACAATC | -0.227
ATCATATA | 0.0889
CTCCTATA | 0.0817
ACGGACCA | -0.0375
ACAATGCT | 0.0399

Sequence | PBM E-score
CTGACACC | -0.106
ACGTCTGA | -0.00689
CAGGAAGA | -0.00284
ACATAGAG | 0.205
TGGATTAA | -0.0318
AATTTACC | 0.153
GTGCTAAC | -0.119
CGCTGACA | 0.0501
GGCTTGCA | 0.0946
CTCCCGTA | -0.312
AGCCGAAA | -0.186
CGGAGGTA | -0.0405
ATGCTTTA | 0.117
TCCTGCGA | 0.053
GGCGCGCA | -0.197
CTTGTAAC | 0.281
AGGTTACG | 0.00664
CTCGAGTA | -0.0178
AGCTTTTC | -0.105
AGAGGTCG | -0.0837
GCGGGCAC | 0.296
CAGGGGCC | -0.0646
ACTCGAGA | -0.152
GCCCTTAC | -0.0326
ACCACCAG | -0.0445

Sequence | PBM E-score
CTATAAGA | -0.175
TCGAAACA | -0.00906
CTTCCAGC | -0.259
TCCGTCGA | -0.149
GTCATCGA | -0.048
CTCCTCAG | -0.175
CAGTTTAA | 0.121
ACCTGGGA | -0.0112
TACGAGGA | 0.0558
AATACTTA | 0.0441
GTAAGCAA | -0.0739
ACATTAGT | 0.187
CCGCAGTA | -0.212
CTGACATC | 0.0354
ATTTCAGC | 0.00613
TAATTCGA | 0.105
ATACTTAA | 0.173
CTTTTGGC | -0.162
AATGCAAC | 0.103
CGACACCC | -0.149
AGAAGTAA | 0.0883
ATTCTGTA | 0.00519
ACCCGCTA | -0.00464
AAATTATG | 0.114
CGCATCTA | -0.0639

Sequence | PBM E-score
CATGTCCC | 0.0461
GAGGTACC | -0.0594
AAGTGGTC | -0.283
CTGCCATC | -0.156
AGCGGATC | -0.18
AGTTTGGG | -0.0476
AATCAGTG | -0.124
AATGATGC | 0.0334
AGCAAAAC | 0.0663
GATCAGCC | -0.357
TGCAATAA | 0.134
CCGTTAAG | -0.0319
CGGTAGAA | -0.207
ATTGACGG | -0.154
CGGATTGA | -0.125
AACGTGAC | 0.0512
AGGCAGAG | -0.0331
ACTCCACC | -0.139
GGTGGTCA | -0.235

Source: the supplement of paper PMC3334620
